From article PMC9911399, “Two distinct binding modes provide the RNA-binding protein RbFox with extraordinary sequence specificity”
Where a chain is given by its changes, count along the chain named. The list shows a part of the results.

B1: GGAGGAC (DNA:RNA)
RNA: GGGAGACCGGAAUUCAGAUUGUCCGGAGGACUUAAAUCCCGUCGUAGCCACCA
DNA 1: CAATCTGAATTCCGGTCTCCC
DNA 2: TGGTGGCTACGACGGGATT
B2: UGCAUUC (DNA:RNA)
RNA: B1 RNA with G25U, A27C, G28A, G29U, A30U
DNA 1: CAATCTGAATTCCGGTCTCCC
DNA 2: TGGTGGCTACGACGGGATT
B3: CACUAUU (DNA:RNA)
RNA: GGGAGACCGGAAUUCAGAUUGUCCCACUAUUUUAAAUCCCGUCGUAGCCACCA
DNA 1: CAATCTGAATTCCGGTCTCCC
DNA 2: TGGTGGCTACGACGGGATT
B4: UGUGGGU (DNA:RNA)
RNA: B1 RNA with G25U, A27U, A30G, C31U
DNA 1: CAATCTGAATTCCGGTCTCCC
DNA 2: TGGTGGCTACGACGGGATT
B5: UGUGUGC (DNA:RNA)
RNA: B1 RNA with G25U, A27U, G29U, A30G
DNA 1: CAATCTGAATTCCGGTCTCCC
DNA 2: TGGTGGCTACGACGGGATT
B6: AGCGAAC (DNA:RNA)
RNA: B1 RNA with G25A, A27C, G29A
DNA 1: CAATCTGAATTCCGGTCTCCC
DNA 2: TGGTGGCTACGACGGGATT
B7: CGUAGUC (DNA:RNA)
RNA: B1 RNA with G25C, A27U, G28A, A30U
DNA 1: CAATCTGAATTCCGGTCTCCC
DNA 2: TGGTGGCTACGACGGGATT
B8: CAAUCGC (DNA:RNA)
RNA: B3 RNA with C27A, A29C, U30G, U31C
DNA 1: CAATCTGAATTCCGGTCTCCC
DNA 2: TGGTGGCTACGACGGGATT
B9: GUGAGGU (DNA:RNA)
RNA: B1 RNA with G26U, A27G, G28A, A30G, C31U
DNA 1: CAATCTGAATTCCGGTCTCCC
DNA 2: TGGTGGCTACGACGGGATT

Target: T1, RBFOX1 RRM RbFoxmut (Fox-RRM*) (Homo sapiens, UniProt Q9NWB1 109-208, R118D;E147R;N151S;E152T)
T1 sequence: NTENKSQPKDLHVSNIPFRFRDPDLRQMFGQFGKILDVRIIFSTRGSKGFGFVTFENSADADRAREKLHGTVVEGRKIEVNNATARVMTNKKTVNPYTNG
Test: EMSA; HiTS-Eq, 1 nM pool, 10 min; buffer printed only for the single-RNA assays: 10 mM Tris pH 7.5, 150 mM NaCl, 3.4 mM EDTA, 0.001% NP-40, 30 C
Details: tags: His6 N-terminal (pET28a); label: 5' 32P
Method in brief: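 Relative association constants, normalised to the cognate motif, were derived by comparing read counts of each RNA species with those of the control reaction. The RNA sequenced was the free fraction, separated by 8% native PAGE after a 10 min equilibration in 50 µL of 1 nM 5′-radiolabelled RNA (7 randomized nucleotides) with increasing concentrations of purified wild-type or mutant RbFox RRM.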

First: B1
Second: B2
The binding signal of the first is lower: 0.0669 KA relative to UGCAUGU for the first, 0.13 KA relative to UGCAUGU for the second.

First: B3
Second: B4
The binding signal of the first is lower: 0.0863 KA relative to UGCAUGU for the first, 0.153 KA relative to UGCAUGU for the second.

First: B5
Second: B6
The binding signal of the first is higher: 0.241 KA relative to UGCAUGU for the first, 0.0784 KA relative to UGCAUGU for the second.

First: B7
Second: B8
The binding signal of the first is higher: 0.149 KA relative to UGCAUGU for the first, 0.0533 KA relative to UGCAUGU for the second.

B9 was tested, and the binding signal was 0.102 KA relative to UGCAUGU.
